# Some of the results follow.
# Columns and labels:
# Experiment in all cases: glycan array binding signal (z-score within array); higher = stronger binding
# Conditions in all cases: glycan notation: IUPAC condensed, linker removed
# [1] = target: Neu5Ac(a2-3)Gal(b1-3)GalNAc6S
# Procedure, shortened: (§1)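 Negative Z-scores can be read as non-binding. The Z-score is calculated within each array and then averaged across arrays of one protein sequence at different concentrations or buffers and across linkers. Arrays, 3228 in all, were curated from the Consortium for Functional Glycomics database and kept only where the protein sequence was available.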
# [2] = target: Neu5Ac(a2-3)Gal(b1-3)GlcNAc
# Procedure, shortened: as §1
# [3] = target: Neu5Ac(a2-3)Gal(b1-3)GlcNAc(b1-3)Gal(b1-3)GlcNAc
# Procedure, shortened: as §1
# [4] = target: Neu5Ac(a2-3)Gal(b1-3)GlcNAc(b1-3)Gal(b1-4)GlcNAc
# Procedure, shortened: as §1
# [5] = target: Neu5Ac(a2-3)Gal(b1-3)GlcNAc(b1-3)GalNAc
# Procedure, shortened: as §1
# [6] = target: Neu5Ac(a2-3)Gal(b1-3)GlcNAc6S
# Procedure, shortened: as §1
# [7] = target: Neu5Ac(a2-3)Gal(b1-3)[Fuc(a1-4)]GlcNAc
# Procedure, shortened: as §1
# [8] = target: Neu5Ac(a2-3)Gal(b1-3)[Fuc(a1-4)]GlcNAc(b1-3)Gal(b1-3)[Fuc(a1-4)]GlcNAc
# Procedure, shortened: as §1
# [9] = target: Neu5Ac(a2-3)Gal(b1-3)[Fuc(a1-4)]GlcNAc(b1-3)Gal(b1-4)[Fuc(a1-3)]GlcNAc
# Procedure, shortened: as §1
# [10] = target: Neu5Ac(a2-3)Gal(b1-3)[Neu5Ac(a2-3)Gal(b1-4)]GlcNAc
# Procedure, shortened: as §1
# [11] = target: Neu5Ac(a2-3)Gal(b1-3)[Neu5Ac(a2-6)]GalNAc
# Procedure, shortened: as §1
# [12] = target: Neu5Ac(a2-3)Gal(b1-4)Glc
# Procedure, shortened: as §1
# [13] = target: Neu5Ac(a2-3)Gal(b1-4)GlcNAc
# Procedure, shortened: as §1
# [14] = target: Neu5Ac(a2-3)Gal(b1-4)GlcNAc(b1-2)Man(a1-3)[GlcNAc(b1-2)Man(b1-4)GlcNAc(b1-2)Man(a1-6)]Man(b1-4)GlcNAc(b1-4)GlcNAc
# Procedure, shortened: as §1
# [15] = target: Neu5Ac(a2-3)Gal(b1-4)GlcNAc(b1-2)Man(a1-3)[Neu5Ac(a2-6)Gal(b1-4)GlcNAc(b1-2)Man(a1-6)]Man(b1-4)GlcNAc(b1-4)GlcNAc
# Procedure, shortened: as §1
# [16] = target: Neu5Ac(a2-3)Gal(b1-4)GlcNAc(b1-3)Gal
# Procedure, shortened: as §1
# [17] = target: Neu5Ac(a2-3)Gal(b1-4)GlcNAc(b1-3)Gal(b1-3)GlcNAc
# Procedure, shortened: as §1
# [18] = target: Neu5Ac(a2-3)Gal(b1-4)GlcNAc(b1-3)Gal(b1-4)GlcNAc
# Procedure, shortened: as §1
# [19] = target: Neu5Ac(a2-3)Gal(b1-4)GlcNAc(b1-3)Gal(b1-4)GlcNAc(b1-3)Gal(b1-4)GlcNAc
# Procedure, shortened: as §1
# [20] = target: Neu5Ac(a2-3)Gal(b1-4)GlcNAc(b1-3)Gal(b1-4)[Fuc(a1-3)]GlcNAc
# Procedure, shortened: as §1
# [21] = target: Neu5Ac(a2-3)Gal(b1-4)GlcNAc(b1-3)GalNAc
# Procedure, shortened: as §1
# [22] = target: Neu5Ac(a2-3)Gal(b1-4)GlcNAc(b1-6)[Gal(b1-3)]GalNAc
# Procedure, shortened: as §1
# [23] = target: Neu5Ac(a2-3)Gal(b1-4)GlcNAc(b1-6)[Neu5Ac(a2-3)Gal(b1-3)]GalNAc
# Procedure, shortened: as §1
# [24] = target: Neu5Ac(a2-3)Gal(b1-4)GlcNAc6S
# Procedure, shortened: as §1
# [25] = target: Neu5Ac(a2-3)Gal(b1-4)[Fuc(a1-3)]GlcNAc
# Procedure, shortened: as §1
# [26] = target: Neu5Ac(a2-3)Gal(b1-4)[Fuc(a1-3)]GlcNAc(b1-3)Gal
# Procedure, shortened: as §1
# [27] = target: Neu5Ac(a2-3)Gal(b1-4)[Fuc(a1-3)]GlcNAc(b1-3)Gal(b1-4)GlcNAc
# Procedure, shortened: as §1
# [28] = target: Neu5Ac(a2-3)Gal(b1-4)[Fuc(a1-3)]GlcNAc(b1-3)Gal(b1-4)[Fuc(a1-3)]GlcNAc(b1-3)Gal(b1-4)[Fuc(a1-3)]GlcNAc
# Procedure, shortened: as §1
# [29] = target: Neu5Ac(a2-3)Gal(b1-4)[Fuc(a1-3)]GlcNAc(b1-3)GalNAc
# Procedure, shortened: as §1
# [30] = target: Neu5Ac(a2-3)Gal(b1-4)[Fuc(a1-3)]GlcNAc(b1-6)[Gal(b1-3)]GalNAc
# Procedure, shortened: as §1
# [31] = target: Neu5Ac(a2-3)Gal(b1-4)[Fuc(a1-3)]GlcNAc6S
# Procedure, shortened: as §1
# [32] = target: Neu5Ac(a2-3)Gal6S(b1-4)GlcNAc
# Procedure, shortened: as §1
# [33] = target: Neu5Ac(a2-3)Gal6S(b1-4)[Fuc(a1-3)]GlcNAc
# Procedure, shortened: as §1
# [34] = target: Neu5Ac(a2-3)GalNAc
# Procedure, shortened: as §1
# [35] = target: Neu5Ac(a2-3)GalNAc(b1-4)GlcNAc
# Procedure, shortened: as §1
# [36] = target: Neu5Ac(a2-3)[GalNAc(b1-4)]Gal(b1-4)Glc
# Procedure, shortened: as §1
# [37] = target: Neu5Ac(a2-3)[GalNAc(b1-4)]Gal(b1-4)GlcNAc
# Procedure, shortened: as §1
# [38] = target: Neu5Ac(a2-3)[GalNAc(b1-4)]Gal(b1-4)GlcNAc(b1-3)GalNAc
# Procedure, shortened: as §1
# [39] = target: Neu5Ac(a2-3)[Neu5Ac(a2-6)]GalNAc
# Procedure, shortened: as §1
# [40] = target: Neu5Ac(a2-6)Gal
# Procedure, shortened: as §1
# [41] = target: Neu5Ac(a2-6)Gal(b1-3)GlcNAc(b1-3)[Gal(b1-4)GlcNAc(b1-6)]Gal(b1-4)Glc
# Procedure, shortened: as §1
# [42] = target: Neu5Ac(a2-6)Gal(b1-4)Glc
# Procedure, shortened: as §1
# [43] = target: Neu5Ac(a2-6)Gal(b1-4)GlcNAc
# Procedure, shortened: as §1
# [44] = target: Neu5Ac(a2-6)Gal(b1-4)GlcNAc(b1-2)Man(a1-3)Man(b1-4)GlcNAc(b1-4)GlcNAc
# Procedure, shortened: as §1
# [45] = target: Neu5Ac(a2-6)Gal(b1-4)GlcNAc(b1-2)Man(a1-3)[Gal(b1-4)GlcNAc(b1-2)Man(a1-6)]Man(b1-4)GlcNAc(b1-4)GlcNAc
# Procedure, shortened: as §1
binder,measurement,setting,value
XCL (Xerocomus chrysenteron) (protein) MSYSITLRVYQTNRDRGYFSIVEKTVWHFANGGTWSEANGAHTLTQGGSGTSGVLRFLSTKGERITVAVGVHNYKRWCDVVTGLKPDETALVINPQYYNNGGRDYVREKQLAEYSVTSAIGTKVEVVYTVAEGNNLEANVIFS,glycan array binding signal (z-score),[1],3.87
same,glycan array binding signal (z-score),[2],-0.308
same,glycan array binding signal (z-score),[3],-0.327
same,glycan array binding signal (z-score),[4],-0.267
same,glycan array binding signal (z-score),[5],-0.266
same,glycan array binding signal (z-score),[6],-0.314
same,glycan array binding signal (z-score),[7],-0.324
same,glycan array binding signal (z-score),[8],-0.24
same,glycan array binding signal (z-score),[9],-0.271
same,glycan array binding signal (z-score),[10],-0.317
same,glycan array binding signal (z-score),[11],1.25
same,glycan array binding signal (z-score),[12],-0.308
same,glycan array binding signal (z-score),[13],-0.303
same,glycan array binding signal (z-score),[14],-0.323
same,glycan array binding signal (z-score),[15],-0.32
same,glycan array binding signal (z-score),[16],-0.214
same,glycan array binding signal (z-score),[17],-0.312
same,glycan array binding signal (z-score),[18],-0.318
same,glycan array binding signal (z-score),[19],-0.329
same,glycan array binding signal (z-score),[20],-0.317
same,glycan array binding signal (z-score),[21],0.473
same,glycan array binding signal (z-score),[22],1.14
same,glycan array binding signal (z-score),[23],0.681
same,glycan array binding signal (z-score),[24],-0.311
same,glycan array binding signal (z-score),[25],-0.3
same,glycan array binding signal (z-score),[26],-0.326
same,glycan array binding signal (z-score),[27],-0.257
same,glycan array binding signal (z-score),[28],-0.264
same,glycan array binding signal (z-score),[29],-0.242
same,glycan array binding signal (z-score),[30],-0.112
same,glycan array binding signal (z-score),[31],-0.308
same,glycan array binding signal (z-score),[32],-0.311
same,glycan array binding signal (z-score),[33],-0.321
same,glycan array binding signal (z-score),[34],0.541
same,glycan array binding signal (z-score),[35],-0.279
same,glycan array binding signal (z-score),[36],-0.324
same,glycan array binding signal (z-score),[37],-0.325
same,glycan array binding signal (z-score),[38],-0.149
same,glycan array binding signal (z-score),[39],0.962
same,glycan array binding signal (z-score),[40],-0.321
same,glycan array binding signal (z-score),[41],-0.319
same,glycan array binding signal (z-score),[42],-0.313
same,glycan array binding signal (z-score),[43],-0.318
same,glycan array binding signal (z-score),[44],-0.245
same,glycan array binding signal (z-score),[45],-0.322

# From the supplement of paper PMC8728848
